# The list shows a part of the results.
# What was measured:
# Test in all cases: glycan array binding signal (z-score within array); higher = stronger binding
# Details in all cases: glycan notation: IUPAC condensed, linker removed
# [1] = target: Fuc(a1-2)Gal(b1-4)GlcNAc(b1-3)Gal(b1-4)GlcNAc(b1-3)Gal(b1-4)GlcNAc
# How it was run: (§1)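 Glycan array data came from 3228 arrays in the Consortium for Functional Glycomics database, and only arrays with an available protein sequence were kept. Glycan names were put into IUPAC-condensed notation, and columns mapping to the same glycan were averaged. The binding signal is a within-array Z-score, averaged across arrays of one protein sequence run at different concentrations or buffers and across linkers. A negative Z-score can be read as non-binding.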
# [2] = target: Fuc(a1-2)Gal(b1-4)GlcNAc(b1-3)GalNAc
# How it was run: as §1
# [3] = target: Fuc(a1-2)Gal(b1-4)GlcNAc(b1-3)[Fuc(a1-2)Gal(b1-4)GlcNAc(b1-6)]GalNAc
# How it was run: as §1
# [4] = target: Fuc(a1-2)Gal(b1-4)GlcNAc(b1-3)[Fuc(a1-3)[Gal(b1-4)]GlcNAc(b1-6)]Gal(b1-4)Glc
# How it was run: as §1
# [5] = target: Fuc(a1-2)Gal(b1-4)GlcNAc(b1-6)GalNAc
# How it was run: as §1
# [6] = target: Fuc(a1-2)Gal(b1-4)GlcNAc6S
# How it was run: as §1
# [7] = target: Fuc(a1-2)Gal(b1-4)[Fuc(a1-3)]GlcNAc
# How it was run: as §1
# [8] = target: Fuc(a1-2)Gal(b1-4)[Fuc(a1-3)]GlcNAc(b1-2)Man(a1-3)[Fuc(a1-2)Gal(b1-4)[Fuc(a1-3)]GlcNAc(b1-2)Man(a1-6)]Man(b1-4)GlcNAc(b1-4)[Fuc(a1-6)]GlcNAc
# How it was run: as §1
# [9] = target: Fuc(a1-2)Gal(b1-4)[Fuc(a1-3)]GlcNAc(b1-2)[Fuc(a1-2)Gal(b1-4)[Fuc(a1-3)]GlcNAc(b1-4)]Man(a1-3)[Fuc(a1-2)Gal(b1-4)[Fuc(a1-3)]GlcNAc(b1-2)Man(a1-6)]Man(b1-4)GlcNAc(b1-4)GlcNAc
# How it was run: as §1
# [10] = target: Fuc(a1-2)Gal(b1-4)[Fuc(a1-3)]GlcNAc(b1-3)Gal(b1-4)[Fuc(a1-3)]GlcNAc
# How it was run: as §1
# [11] = target: Fuc(a1-2)Gal(b1-4)[Fuc(a1-3)]GlcNAc(b1-3)Gal(b1-4)[Fuc(a1-3)]GlcNAc(b1-3)Gal(b1-4)[Fuc(a1-3)]GlcNAc
# How it was run: as §1
# [12] = target: Fuc(a1-2)Gal(b1-4)[Fuc(a1-3)]GlcNAc(b1-3)GalNAc
# How it was run: as §1
# [13] = target: Fuc(a1-2)Gal(b1-4)[Fuc(a1-3)]GlcNAc(b1-3)[Neu5Ac(a2-6)Gal(b1-4)GlcNAc(b1-6)]Gal(b1-4)Glc
# How it was run: as §1
# [14] = target: Fuc(a1-2)Gal3S(b1-4)GlcNAc
# How it was run: as §1
# [15] = target: Fuc(a1-2)Gal6S(b1-3)GlcNAc
# How it was run: as §1
# [16] = target: Fuc(a1-2)Gal6S(b1-3)GlcNAc6S
# How it was run: as §1
# [17] = target: Fuc(a1-2)Gal6S(b1-4)Glc
# How it was run: as §1
# [18] = target: Fuc(a1-2)Gal6S(b1-4)Glc6S
# How it was run: as §1
# [19] = target: Fuc(a1-2)[Gal(a1-3)]Gal
# How it was run: as §1
# [20] = target: Fuc(a1-2)[Gal(a1-3)]Gal(b1-3)GalNAc
# How it was run: as §1
# [21] = target: Fuc(a1-2)[Gal(a1-3)]Gal(b1-3)GalNAc(b1-3)Gal(a1-4)Gal(b1-4)Glc
# How it was run: as §1
# [22] = target: Fuc(a1-2)[Gal(a1-3)]Gal(b1-3)GlcNAc
# How it was run: as §1
# [23] = target: Fuc(a1-2)[Gal(a1-3)]Gal(b1-3)GlcNAc(b1-2)Man(a1-3)[Fuc(a1-2)[Gal(a1-3)]Gal(b1-3)GlcNAc(b1-2)Man(a1-6)]Man(b1-4)GlcNAc(b1-4)GlcNAc
# How it was run: as §1
# [24] = target: Fuc(a1-2)[Gal(a1-3)]Gal(b1-3)GlcNAc(b1-2)Man(a1-3)[Fuc(a1-2)[Gal(a1-3)]Gal(b1-3)GlcNAc(b1-2)Man(a1-6)]Man(b1-4)GlcNAc(b1-4)[Fuc(a1-6)]GlcNAc
# How it was run: as §1
# [25] = target: Fuc(a1-2)[Gal(a1-3)]Gal(b1-3)GlcNAc(b1-3)GalNAc
# How it was run: as §1
# [26] = target: Fuc(a1-2)[Gal(a1-3)]Gal(b1-3)GlcNAc(b1-6)GalNAc
# How it was run: as §1
# [27] = target: Fuc(a1-2)[Gal(a1-3)]Gal(b1-4)Glc
# How it was run: as §1
# [28] = target: Fuc(a1-2)[Gal(a1-3)]Gal(b1-4)GlcNAc
# How it was run: as §1
# [29] = target: Fuc(a1-2)[Gal(a1-3)]Gal(b1-4)GlcNAc(b1-2)Man
# How it was run: as §1
# [30] = target: Fuc(a1-2)[Gal(a1-3)]Gal(b1-4)GlcNAc(b1-2)Man(a1-3)[Fuc(a1-2)[Gal(a1-3)]Gal(b1-4)GlcNAc(b1-2)Man(a1-6)]Man(b1-4)GlcNAc(b1-4)GlcNAc
# How it was run: as §1
binder,measurement,setting,value
Cohesin-hDCIR (Homo sapiens) (protein) LDDLDAVRIKVDTVNAKPGDTVRIPVRFSGIPSKGIANCDFVYSYDPNVLEIIEIEPGDIIVDPNPDKSFDTAVYPDRKIIVFLFAEDSGTGAYAITKDGVFATIVAKVKEGAPNGLSVIKFVEVGGFANNDLVEQKTQFFDGGANVGDTTEPATPTTPVTTPTTTDDLDAASQKYSQLLEKKTTKELVHTTLECVKKNMPVEETAWSCCPKNWKSFSSNCYFISTESASWQDSEKDCARMEAHLLVINTQEEQDFIFQNLQEESAYFVGLSDPEGQRHWQWVDQTPYNESSTFWHPREPSDPNERCVVLNFRKSPKRWGWNDVNCLGPQRSVCEMMKIHLHHHHHH,glycan array binding signal (z-score),[1],-0.64
same,glycan array binding signal (z-score),[2],-0.226
same,glycan array binding signal (z-score),[3],0.574
same,glycan array binding signal (z-score),[4],-0.626
same,glycan array binding signal (z-score),[5],5.99
same,glycan array binding signal (z-score),[6],-0.5
same,glycan array binding signal (z-score),[7],0.638
same,glycan array binding signal (z-score),[8],-0.296
same,glycan array binding signal (z-score),[9],-0.294
same,glycan array binding signal (z-score),[10],-0.633
same,glycan array binding signal (z-score),[11],-0.618
same,glycan array binding signal (z-score),[12],0.007
same,glycan array binding signal (z-score),[13],-0.662
same,glycan array binding signal (z-score),[14],-0.475
same,glycan array binding signal (z-score),[15],-0.511
same,glycan array binding signal (z-score),[16],0.142
same,glycan array binding signal (z-score),[17],-0.454
same,glycan array binding signal (z-score),[18],-0.178
same,glycan array binding signal (z-score),[19],-0.466
same,glycan array binding signal (z-score),[20],-0.585
same,glycan array binding signal (z-score),[21],-0.519
same,glycan array binding signal (z-score),[22],2.05
same,glycan array binding signal (z-score),[23],-0.493
same,glycan array binding signal (z-score),[24],-0.382
same,glycan array binding signal (z-score),[25],-0.283
same,glycan array binding signal (z-score),[26],1.68
same,glycan array binding signal (z-score),[27],0.366
same,glycan array binding signal (z-score),[28],-0.418
same,glycan array binding signal (z-score),[29],-0.126
same,glycan array binding signal (z-score),[30],-0.03

# Source: the supplement of paper PMC8728848
